Data as given in the supplement of paper PMC8728848.
This is one part of the list.

Tests used:
Test in all cases: glycan array binding signal (z-score within array); higher = stronger binding
Conditions in all cases: glycan notation: IUPAC condensed, linker removed; mutation: R186I
GlcNAc(b1-4)GlcNAc = biological target: GlcNAc(b1-4)GlcNAc
How it was run: (§1)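 Glycan array binding is given as a within-array Z-score, which can be read as non-binding when negative. The arrays, 3228 of them, came from the Consortium for Functional Glycomics database and were retained only where the protein sequence was available. Z-scores were averaged across arrays of the same protein sequence at different concentrations or buffers and across linkers.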

[1] = biological target: GlcNAc(b1-4)GlcNAc(b1-4)GlcNAc
How it was run: as §1

[2] = biological target: GlcNAc(b1-4)GlcNAc(b1-4)GlcNAc(b1-4)GlcNAc(b1-4)GlcNAc
How it was run: as §1

[3] = biological target: GlcNAc(b1-4)GlcNAc(b1-4)GlcNAc(b1-4)GlcNAc(b1-4)GlcNAc(b1-4)GlcNAc
How it was run: as §1

[4] = biological target: GlcNAc(b1-4)[GlcNAc(b1-6)]GalNAc
How it was run: as §1

[5] = biological target: GlcNAc(b1-6)Gal(b1-4)GlcNAc
How it was run: as §1

GlcNAc(b1-6)GalNAc = biological target: GlcNAc(b1-6)GalNAc
How it was run: as §1

GlcNAc3Prop(b1-4)GlcNAc = biological target: GlcNAc3Prop(b1-4)GlcNAc
How it was run: as §1

[6] = biological target: GlcNAc6S(b1-3)Gal(b1-4)GlcNAc
How it was run: as §1

Kdn(a2-3)Gal(b1-3)GalNAc = biological target: Kdn(a2-3)Gal(b1-3)GalNAc
How it was run: as §1

Kdn(a2-3)Gal(b1-3)GlcNAc = biological target: Kdn(a2-3)Gal(b1-3)GlcNAc
How it was run: as §1

Kdn(a2-3)Gal(b1-4)Glc = biological target: Kdn(a2-3)Gal(b1-4)Glc
How it was run: as §1

Kdn(a2-3)Gal(b1-4)GlcNAc = biological target: Kdn(a2-3)Gal(b1-4)GlcNAc
How it was run: as §1

[7] = biological target: Kdn(a2-3)Gal(b1-4)[Fuc(a1-3)]GlcNAc
How it was run: as §1

Kdn(a2-6)Gal(b1-4)GlcNAc = biological target: Kdn(a2-6)Gal(b1-4)GlcNAc
How it was run: as §1

[8] = biological target: Man(a1-2)Man(a1-2)Man(a1-3)Man
How it was run: as §1

[9] = biological target: Man(a1-2)Man(a1-2)Man(a1-6)[Man(a1-3)]Man
How it was run: as §1

Man(a1-2)Man(a1-3)Man = biological target: Man(a1-2)Man(a1-3)Man
How it was run: as §1

[10] = biological target: Man(a1-2)Man(a1-3)[Man(a1-2)Man(a1-6)]Man
How it was run: as §1

[11] = biological target: Man(a1-2)Man(a1-3)[Man(a1-2)Man(a1-6)]Man(a1-6)[Man(a1-2)Man(a1-2)Man(a1-3)]Man
How it was run: as §1

[12] = biological target: Man(a1-2)Man(a1-3)[Man(a1-2)Man(a1-6)]Man(a1-6)[Man(a1-2)Man(a1-2)Man(a1-3)]Man(b1-4)GlcNAc(b1-4)GlcNAc
How it was run: as §1

[13] = biological target: Man(a1-2)Man(a1-3)[Man(a1-6)]Man(a1-6)[Man(a1-2)Man(a1-3)]Man(b1-4)GlcNAc(b1-4)GlcNAc
How it was run: as §1

[14] = biological target: Man(a1-2)Man(a1-6)[Man(a1-3)]Man(a1-6)[Man(a1-2)Man(a1-2)Man(a1-3)]Man
How it was run: as §1

[15] = biological target: Man(a1-2)Man(a1-6)[Man(a1-3)]Man(a1-6)[Man(a1-2)Man(a1-2)Man(a1-3)]Man(b1-4)GlcNAc(b1-4)GlcNAc
How it was run: as §1

Man(a1-3)[Man(a1-6)]Man = biological target: Man(a1-3)[Man(a1-6)]Man
How it was run: as §1

[16] = biological target: Man(a1-3)[Man(a1-6)]Man(a1-6)[Man(a1-2)Man(a1-3)]Man(b1-4)GlcNAc(b1-4)GlcNAc
How it was run: as §1

[17] = biological target: Man(a1-3)[Man(a1-6)]Man(a1-6)[Man(a1-3)]Man
How it was run: as §1

[18] = biological target: Man(a1-3)[Man(a1-6)]Man(a1-6)[Man(a1-3)]Man(b1-4)GlcNAc(b1-4)GlcNAc
How it was run: as §1

[19] = biological target: Man(a1-3)[Man(a1-6)]Man(b1-4)GlcNAc(b1-4)GlcNAc
How it was run: as §1

Man(a1-6)Man = biological target: Man(a1-6)Man
How it was run: as §1

Man(b1-4)GlcNAc = biological target: Man(b1-4)GlcNAc
How it was run: as §1

Neu5Ac(a2-3)Gal = biological target: Neu5Ac(a2-3)Gal
How it was run: as §1

[20] = biological target: Neu5Ac(a2-3)Gal(b1-3)GalNAc
How it was run: as §1

[21] = biological target: Neu5Ac(a2-3)Gal(b1-3)GalNAc(b1-3)Gal(a1-4)Gal(b1-4)Glc
How it was run: as §1

[22] = biological target: Neu5Ac(a2-3)Gal(b1-3)GalNAc(b1-4)[Neu5Ac(a2-3)]Gal(b1-4)Glc
How it was run: as §1

[23] = biological target: Neu5Ac(a2-3)Gal(b1-3)GalNAc6S
How it was run: as §1

[24] = biological target: Neu5Ac(a2-3)Gal(b1-3)GlcNAc
How it was run: as §1

[25] = biological target: Neu5Ac(a2-3)Gal(b1-3)GlcNAc(b1-2)Man(a1-3)[Neu5Ac(a2-3)Gal(b1-3)GlcNAc(b1-2)Man(a1-6)]Man(b1-4)GlcNAc(b1-4)GlcNAc
How it was run: as §1

B1: Gal 3 (Homo sapiens), P17931 (protein)
chain: MADNFSLHDALSGSGNPNPQGWPGAWGNQPAGAGGYPGASYPGAYPGQAPPGAYPGQAPPGAYHGAPGAYPGAPAPGVYPGPPSGPGAYPSSGQPSAPGAYPATGPYGAPAGPLIVPYNLPLPGGVVPRMLITILGTVKPNANILDFQRGNDVAFHFNPRFNENNRRVIVCNTKLDNNWGREEIQSVFPFESGKPFKIQVLVEPDHFKVAVNDAHLLQYNHRVKKLNEISKLGISGDIDLTSASYTMI
GlcNAc(b1-4)GlcNAc
  glycan array binding signal (z-score): -0.187
[1]
  glycan array binding signal (z-score): -0.173
[2]
  glycan array binding signal (z-score): -0.138
[3]
  glycan array binding signal (z-score): -0.195
[4]
  glycan array binding signal (z-score): -0.17
[5]
  glycan array binding signal (z-score): -0.188
GlcNAc(b1-6)GalNAc
  glycan array binding signal (z-score): -0.169
GlcNAc3Prop(b1-4)GlcNAc
  glycan array binding signal (z-score): -0.168
[6]
  glycan array binding signal (z-score): -0.172
Kdn(a2-3)Gal(b1-3)GalNAc
  glycan array binding signal (z-score): -0.154
Kdn(a2-3)Gal(b1-3)GlcNAc
  glycan array binding signal (z-score): -0.04
Kdn(a2-3)Gal(b1-4)Glc
  glycan array binding signal (z-score): -0.187
Kdn(a2-3)Gal(b1-4)GlcNAc
  glycan array binding signal (z-score): -0.189
[7]
  glycan array binding signal (z-score): -0.185
Kdn(a2-6)Gal(b1-4)GlcNAc
  glycan array binding signal (z-score): -0.154
[8]
  glycan array binding signal (z-score): -0.105
[9]
  glycan array binding signal (z-score): -0.146
Man(a1-2)Man(a1-3)Man
  glycan array binding signal (z-score): -0.107
[10]
  glycan array binding signal (z-score): -0.193
[11]
  glycan array binding signal (z-score): -0.075
[12]
  glycan array binding signal (z-score): -0.171
[13]
  glycan array binding signal (z-score): -0.193
[14]
  glycan array binding signal (z-score): -0.189
[15]
  glycan array binding signal (z-score): -0.036
Man(a1-3)[Man(a1-6)]Man
  glycan array binding signal (z-score): -0.134
[16]
  glycan array binding signal (z-score): -0.178
[17]
  glycan array binding signal (z-score): -0.192
[18]
  glycan array binding signal (z-score): -0.159
[19]
  glycan array binding signal (z-score): -0.194
Man(a1-6)Man
  glycan array binding signal (z-score): -0.185
Man(b1-4)GlcNAc
  glycan array binding signal (z-score): -0.132
Neu5Ac(a2-3)Gal
  glycan array binding signal (z-score): -0.084
[20]
  glycan array binding signal (z-score): -0.098
[21]
  glycan array binding signal (z-score): -0.184
[22]
  glycan array binding signal (z-score): -0.111
[23]
  glycan array binding signal (z-score): -0.195
[24]
  glycan array binding signal (z-score): -0.154
[25]
  glycan array binding signal (z-score): -0.195
